Results published in PubChem BioAssay AID1159614 (National Center for Advancing Translational Sciences (NCATS), 2016).
Among all 45,000 compounds or so, about 65 (0.1%) were called active. Calls follow the shape of the dose curve; as a rule, active = well fitted activation curve with a large enough effect; inconclusive = small, poorly fitted or top-dose-only effect; inactive = no such curve, though single readings can be large or run the other way. Some of the results follow.

biological target: Galactocerebrosidase (Homo sapiens) (UniProt P54803); experiment: A Novel Cell-Based Assay to Identify Small Molecules for B -Galactocerebrosidase; conditions: 145M-Twi-hGALC-G270D cells (Twitcher mouse brain line with human GALC G270D), HMU-beta-Gal fluorescence, 48 h; series mostly up to 57.5 µM; activation: at the top concentration; also: 0% is about no effect; nearly all actives have a fitted effect of over 65% in size
In short: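 Live 145M-Twi cells (Twitcher mouse brain-derived, GALC-null) stably expressing human GALC-G270D, with a wild-type GALC line, were compound-treated. Residual GALC activity was then read as fluorescence from 0.1 mM final HMU-β-gal at pH 5.2; higher signal means activation.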

Chain of UniProt P54803 (P54803 whole entry, looked up): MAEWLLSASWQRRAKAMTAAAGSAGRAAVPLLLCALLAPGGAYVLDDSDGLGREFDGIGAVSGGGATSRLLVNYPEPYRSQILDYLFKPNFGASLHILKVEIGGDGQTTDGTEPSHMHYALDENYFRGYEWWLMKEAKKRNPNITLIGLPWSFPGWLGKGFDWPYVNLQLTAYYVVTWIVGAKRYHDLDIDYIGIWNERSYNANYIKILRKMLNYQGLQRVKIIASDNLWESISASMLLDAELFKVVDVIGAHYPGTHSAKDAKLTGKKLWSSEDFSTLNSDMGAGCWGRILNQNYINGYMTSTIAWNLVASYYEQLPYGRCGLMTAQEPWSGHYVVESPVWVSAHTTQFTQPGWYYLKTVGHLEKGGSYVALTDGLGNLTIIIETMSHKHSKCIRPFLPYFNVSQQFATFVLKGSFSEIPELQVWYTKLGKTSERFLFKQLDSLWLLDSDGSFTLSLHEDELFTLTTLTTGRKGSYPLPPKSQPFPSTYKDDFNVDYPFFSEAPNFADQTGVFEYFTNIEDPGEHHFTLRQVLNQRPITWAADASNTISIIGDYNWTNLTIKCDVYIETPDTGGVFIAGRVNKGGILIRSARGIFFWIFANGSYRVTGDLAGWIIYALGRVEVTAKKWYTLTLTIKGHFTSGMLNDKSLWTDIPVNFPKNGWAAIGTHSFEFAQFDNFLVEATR

| SMILES | activation |
| --- | --- |
| Cc1cc(C)c(NC(=O)C(C)n2nnc3sc4c(c3c2=O)CCCC4)c(C)c1 (stereo not given) | inactive: -0.604% |
| Cc1ccc2oc(=O)c(S(=O)(=O)c3ccc(C(C)(C)C)cc3)cc2c1 | inactive: -17.9% |
| CN(C)c1ccc(CNC(=O)CN2CCSc3ccc(S(=O)(=O)N(C)C)cc32)cc1 | inactive: -39.7% |
| CCc1ccccc1NC(=O)Nc1nnc(N(CC)c2ccccc2)s1 | inactive: -17.3% |
| COc1ccc(OC)c2sc(N(Cc3cccnc3)C(=O)c3ccco3)nc12 | inactive: -4.91% |
| Cc1cc(NC(=O)CN2C(=O)c3cccnc3Sc3ccccc32)ccc1Br | inactive: -11.9% |
| CCN1CCN(c2ncc3c(n2)CC(c2ccccc2O)CC3=O)CC1 (stereo not given) | inactive: -12.9% |
| Cc1ccc(CNC(=O)c2cc(-c3ccc(Cl)cc3)on2)cc1 | inactive: -16.6% |
| COc1ccc(CNC(=O)c2oc3c(c2C)-c2nn(Cc4ccc(Cl)cc4)cc2CC3)cc1 | inactive: -13.1% |
| O=C(Nc1ccc(Br)cc1)C1CCCN1S(=O)(=O)c1ccc(F)cc1 (stereo not given) | inactive: -14.3% |
| CC(C)(C)c1ccc(C(=O)Nc2sc3c(c2C#N)CCC(C(C)(C)C)C3)cc1 (stereo not given) | inactive: -11.1% |
| CCOc1ccc(NC(=O)Cn2c(=O)n(CC(=O)NCc3ccccc3Cl)c(=O)c3sccc32)cc1 | inactive: 23.6% |
| Cc1ccc(NC(=O)C2CCN(c3nn4cc(-c5ccc(C)cc5)nc4s3)CC2)cc1 | inactive: -14% |
| Cc1ccc(CNC(=O)CNS(=O)(=O)c2cccs2)cc1 | inactive: -18.2% |
| CCCCCn1c(=O)[nH]c2cc(C(=O)N3CCN(c4cccc(C(F)(F)F)c4)CC3)ccc2c1=O | inactive: -0.0307% |
| CCN(c1ccccc1)S(=O)(=O)c1nnc(NC(=O)COc2cccc(C)c2)s1 | inactive: -7.15% |
| CC(C)c1nn2c(=O)cc(COC(=O)c3ccccc3NC(=O)c3cccc(Cl)c3)nc2s1 | inactive: -8.34% |
| COc1ccc(CCNC(=O)CCn2c(=O)c3ccccc3n(Cc3ccccc3)c2=O)cc1OC | inactive: 1.28% |
| Cc1nnc(NC(=O)CSCc2cc(=O)c3ccccc3[nH]2)s1 | inactive: -14.4% |
| COc1cc(OC)c(NS(=O)(=O)c2c(C(=O)N3CCC(C)CC3)c(C)n(C)c2C)cc1Cl | inactive: 1.25% |

| SMILES | activation |
| --- | --- |
| Nc1c(I)cc(I)c(C(=O)N(CCC(=O)O)c2ccccc2)c1I | inactive: -6.59% |
| CCc1ccc(C(=O)c2cn(Cc3ccc(F)cc3)c3cc(OC)c(OC)cc3c2=O)cc1 | inactive: -6.59% |
| COc1ccc(N2CCN(Cc3nnc(-c4cccc(Br)c4)o3)CC2)cc1 | inactive: -10.1% |
| COc1ccc(CCNC(=O)C(C)n2c(=O)cc(C(F)(F)F)c3c(C)nn(C)c32)cc1OC (stereo not given) | inactive: -14.7% |
| Cc1cc(C)cc(Oc2nc3c(C)cccn3c(=O)c2/C=C(\C#N)c2nc3ccccc3s2)c1 | inactive: -11.6% |
| CCS(=O)(=O)N1CC(=O)N(c2ccc(Cl)cc2)C(C)(C(=O)NC2CCCCCC2)C1 (stereo not given) | inactive: 4.34% |
| COC(=O)c1ccccc1NC(=O)c1cnc2c(-c3cccc(C)c3)c(C)nn2c1C | inactive: -17.3% |
| Cc1nc2ccn(Cc3cccnc3)c(=O)c2cc1C(=O)N1CCN(c2ccc(F)cc2)CC1 | inactive: -17.8% |
| CN(C)CCNc1oc(-c2ccc(COc3ccc(Cl)cc3)o2)nc1C#N | inactive: -7.94% |
| CC(C)Cn1c(-c2ccc(S(=O)(=O)N3CCOCC3)cc2)csc1=Nc1cc(Cl)ccc1Cl | inactive: -12.9% |
| COc1cccc(NC(=O)/C(C#N)=C/c2c(C)n(Cc3ccc(Cl)cc3)c3ccccc23)c1 | inactive: -19.5% |
| COc1ccc(CCn2c3c(c(=O)[nH]c2=O)C(NC(=O)c2ccc(C(C)(C)C)cc2)(C(F)(F)F)C(=O)N3)cc1OC (stereo not given) | inactive: -5.78% |
| Cc1ccc(C(C)C)c(OCCSc2nc3ccccc3n2CC(O)CO)c1 (stereo not given) | inactive: -13.3% |
| COc1ccccc1Cc1nc2ccccc2nc1SCC(=O)N1CCN(c2ccccc2)CC1 | inactive: -13.4% |
| CC(=O)c1cc(-c2ccc(F)cc2)n(CC(=O)Nc2cc(C)cc(C)c2)c1C | inactive: -11.1% |
| CCOc1ccc(Nc2nc3c(S(=O)(=O)c4ccc(C(C)C)cc4)nnn3c3ccsc23)cc1 | inactive: -6.72% |
| Cc1cc2nc(-c3ccc(NC(=O)c4cc5ccccc5o4)cc3)oc2cc1C | inactive: 5.71% |
| O=C(NCc1ccco1)c1ccc2c(c1)N(Cc1ccc(Cl)cc1)C(=O)c1ccccc1S2 | inactive: -0.177% |
| CC(=O)N1CCc2cc(S(=O)(=O)C(C)CC(=O)Nc3ccc(Br)c(C)c3)ccc21 (stereo not given) | inactive: -9.2% |
| CN(C)S(=O)(=O)c1ccc(C(=O)NCCSc2c(-c3ccccc3)[nH]c3ccccc23)cc1 | inactive: -19.2% |

| SMILES | activation |
| --- | --- |
| COc1ccc2nc(N(Cc3cccnc3)C(=O)Cc3ccccc3)sc2c1 | inactive: -16.4% |
| COc1cc(S(=O)(=O)NCCc2c(C)[nH]c3ccccc23)c(C)cc1C | inactive: -15% |
| CCc1cccc(-n2c(=O)c3cccnc3n2CC(=O)Nc2c(C)cc(C)cc2C)c1 | inactive: -19% |
| COc1ccc(N(Cc2cc3cccc(C)c3[nH]c2=O)C(=O)c2cccc(Cl)c2)cc1 | inactive: -14.4% |
| COc1ccccc1CNC(=O)CN1C(=O)COc2ccc(S(=O)(=O)NC3CCCC3)cc21 | inactive: -5.2% |
| CC1CCN(CC2CCN(C(=O)Nc3ccc(Br)cc3F)CC2)CC1 | inactive: -17.4% |
| Cc1cccc(-n2c(CNC(=O)c3cccc(F)c3)nnc2SCC(=O)Nc2ccccc2F)c1 | inactive: -14.3% |
| Fc1cccc(-c2nnn3c2nc(NC2CCCCC2)c2ccccc23)c1 | inactive: -6.23% |
| COc1ccc(NC(=O)C2=C(C)Nc3ncnn3C2c2cccn2C)cc1 (stereo not given) | inactive: -26% |
| CC(=O)Nc1ccc(S(=O)(=O)NC2=NCN(CCO)CN2)cc1 | inactive: 3.3% |
| CCOCCCN1C(=O)c2ccccc2CC1(C)C(=O)NC1CCCCC1 (stereo not given) | inactive: 1.85% |
| COC(=O)c1ccccc1NC(=O)c1sc2nc(C)cc(C)c2c1NC(=O)c1ccccc1OC | inactive: -19.1% |
| COc1ccc(Cc2cnc(N)nc2N)cc1OC | inactive: -13.4% |
| Cc1ccc(Cl)cc1-n1ncc2c(N3CCN(Cc4ccccc4)CC3)ncnc21 | inactive: 3.56% |
| Cc1noc(C)c1S(=O)(=O)N(CC(=O)NCCc1ccccc1)c1ccc(C(C)C)cc1 | inactive: 4.8% |
| CCOC(=O)c1c(NC(=O)c2ccc(S(=O)(=O)N(C)C3CCCCC3)cc2)sc2c1CCN(C(C)C)C2 | inactive: -24.5% |
| COc1ccc(-c2nc(S(=O)(=O)c3ccc(Cl)cc3)c(NCc3ccccc3)o2)cc1 | inactive: -15.2% |
| COc1ccc(CNC(=O)C2CCC(CNS(=O)(=O)c3ccc4c(c3)CCCC(=O)N4)CC2)cc1 (stereo not given) | inactive: -0.484% |
| Cc1ccc(-c2cn3c(n2)sc2cc(C(=O)NCCC4=CCCCC4)ccc23)cc1 | inactive: -11.7% |
| COc1cc(-c2nc(Cn3nnc(C(=O)Nc4cccc(Cl)c4)c3C)c(C)o2)cc(OC)c1OC | inactive: -1.08% |
